# Laboratory results as given in paper PMC4336329 (PLoS ONE, 2015).
# About 2,200 (0.71%) of roughly 310,000 compounds showed an effect of 50% or more. Effects have a minus sign here. This is one part of the list.
# Target: human ether-à-go-go-related gene (hERG) potassium channel (human, UniProt Q12809)
# Test: primary screen, population patch clamp on CHO cells stably expressing hERG
# Procedure: Briefly, Chinese hamster ovary (CHO) cells stably expressing the hERG channel were dislodged from tissue culture flasks and dispensed into PPC plates. […] During the recording, background leak currents were estimated by a 100 ms step to -80 mV from an initial holding potential of -70 mV and subtracted from the subsequent current measurement. The campaign was conducted in two phases using slight differences in recording protocol. In the first phase, the initial voltage pulse used a 100 ms step to -30 mV from a holding potential of -70 mV, a 2 s conditioning step to +25 mV, and a 2 s test step to -30 mV. During the second phase of the screen, the potential during the conditioning step was raised to +45 mV. In both phases of the campaign, a secondary voltage pulse was applied using the same parameters as the second phase initial pulse. The initial and secondary pulses were applied in the absence of compound, and upon application of 1 μM and 10 μM test concentrations. Small molecule effects on hERG current density were quantified by […].
# Chain of human ether-à-go-go-related gene (hERG) potassium channel (Q12809 whole entry, looked up): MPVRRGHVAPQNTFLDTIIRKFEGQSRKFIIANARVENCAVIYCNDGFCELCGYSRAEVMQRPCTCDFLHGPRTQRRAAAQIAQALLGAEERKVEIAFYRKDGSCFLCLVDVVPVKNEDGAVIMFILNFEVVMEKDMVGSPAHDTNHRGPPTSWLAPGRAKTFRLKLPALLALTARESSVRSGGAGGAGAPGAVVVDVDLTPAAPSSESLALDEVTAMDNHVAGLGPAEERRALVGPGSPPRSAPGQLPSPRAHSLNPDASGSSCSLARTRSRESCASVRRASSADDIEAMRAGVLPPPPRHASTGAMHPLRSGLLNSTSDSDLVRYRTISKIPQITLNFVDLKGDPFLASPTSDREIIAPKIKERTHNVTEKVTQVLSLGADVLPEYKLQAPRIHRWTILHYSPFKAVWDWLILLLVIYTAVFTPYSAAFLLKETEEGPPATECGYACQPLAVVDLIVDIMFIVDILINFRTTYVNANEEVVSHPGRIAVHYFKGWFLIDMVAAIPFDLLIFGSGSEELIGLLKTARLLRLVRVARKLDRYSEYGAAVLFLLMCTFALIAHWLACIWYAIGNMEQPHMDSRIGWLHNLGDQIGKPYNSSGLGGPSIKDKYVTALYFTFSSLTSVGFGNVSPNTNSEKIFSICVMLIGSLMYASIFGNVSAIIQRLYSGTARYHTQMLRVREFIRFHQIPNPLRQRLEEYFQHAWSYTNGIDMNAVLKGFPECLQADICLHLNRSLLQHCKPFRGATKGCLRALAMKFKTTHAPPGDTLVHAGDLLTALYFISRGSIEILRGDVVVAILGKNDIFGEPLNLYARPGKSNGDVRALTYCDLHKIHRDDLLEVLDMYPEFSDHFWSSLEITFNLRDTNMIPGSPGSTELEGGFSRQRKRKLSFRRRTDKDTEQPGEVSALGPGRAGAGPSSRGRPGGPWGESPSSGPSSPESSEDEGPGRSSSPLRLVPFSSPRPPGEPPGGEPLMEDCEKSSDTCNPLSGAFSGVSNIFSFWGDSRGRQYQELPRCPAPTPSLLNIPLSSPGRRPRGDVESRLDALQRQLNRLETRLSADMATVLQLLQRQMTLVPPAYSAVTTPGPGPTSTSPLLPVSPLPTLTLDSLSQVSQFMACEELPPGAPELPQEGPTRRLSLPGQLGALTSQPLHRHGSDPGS
row,Compound,"hERG current change (%, negative = inhibition) at 1uM [%]"
1,COc1ccc(OC)c(-c2csc(NC(=O)C3CSC4(C)CCC(=O)N34)n2)c1 (centres unmarked),5.28
2,O=C(NCc1cccnc1)c1nnc(Cc2ccc(F)cc2)o1,10.8
3,Cc1ccc(C(=O)N=c2sccn2C)cc1S(=O)(=O)N1CCOCC1,1.51
4,CCN(CC)c1ccc(NC(=O)CCS(=O)(=O)c2cccc3nsnc23)c(C)c1,11
5,COc1ccc(N2CCN(C(=O)c3ccc(C)cc3)CC2)c([N+](=O)[O-])c1,-29.7
6,CCOc1cccc(CN2CCCC(CCC(=O)NCc3ccccc3F)C2)c1O (centres unmarked),-18.1
7,Cc1cccc(-c2cc3nc(C)c(C)c(NCCCn4ccnc4)n3n2)c1,-20.6
8,O=C(Nc1cc(C(F)(F)F)ccc1N1CCOCC1)C1CC1,9.37
9,C[C@H](NC(=O)Cc1cccc2ccccc12)C(=O)NCc1ccccc1,8.27
10,NC(=O)COC(=O)C(Cc1ccccc1)NS(=O)(=O)c1ccccc1F (centres unmarked),9.2
11,COc1ccc(C2NC(=S)N(c3ccccc3)C(C)=C2C(=O)Nc2ccccc2)cc1 (centres unmarked),13.2
12,Cc1cc(=O)oc2c3c(cc(OCC(=O)NCCC(=O)O)c12)OC(C)(C)CC3,5.8
13,CCN(CC(=O)NCc1ccc(Cl)cc1)C(=O)CN1C(=O)NC(CC)(c2ccccc2)C1=O (centres unmarked),11.7
14,COc1ccc(C(CNC(=O)c2cccc(NS(=O)(=O)c3ccc(C)c(F)c3)c2)N2CCCC2)cc1 (centres unmarked),-17.6
15,CN(Cc1cccs1)C(=O)CSc1nc2ccccc2[nH]1,-2.99
16,COc1ccc(C)cc1S(=O)(=O)N(CC(=O)NCc1ccco1)c1ccc(C)cc1,-8.28
17,O=C(COc1ccc(-c2nnco2)cc1)Nc1c(Cl)cccc1C(F)(F)F,1.19
18,O=Nc1c(O)[nH]c2c(F)cccc12,11.7
19,CCC(C)NC(=O)COC(=O)c1csc2c1CCCC2 (centres unmarked),10.4
20,CCc1ccc(N2CC(C(=O)Nc3nccs3)CC2=O)cc1 (centres unmarked),-0.303
21,C=CCc1cccc2cc(C(=O)N3CCN(C(=O)OCC)CC3)c(=O)oc12,-14.1
22,CN1C(=O)C(CC(=O)Nc2ccc(Cl)cc2)N(Cc2ccco2)C1=S (centres unmarked),14.4

row,Compound,"hERG current change (%, negative = inhibition) at 1uM [%]"
1,O=C(NCc1ccc2c(c1)OCO2)c1cccs1,-9.19
2,COc1ccc(N2C(=O)CC(Nc3cccc(C(C)=O)c3)C2=O)cc1OC (centres unmarked),10.8
3,Cc1cccc(N(CC(=O)NC(C)(C)C)C(=O)CCC(=O)Nc2ccccn2)c1,19.3
4,CC(C)CCOP(=O)(c1ccc(N(C)C)cc1)C(O)c1ccc(N(C)C)cc1 (centres unmarked),5.5
5,O=[N+]([O-])c1ccc(N/N=C/C=C/c2ccco2)cc1,-6.06
6,CC(C)(C)C(=O)NC1(C(F)(F)F)NC(=O)N(c2ccccc2F)C1=O (centres unmarked),11.7
7,O=C(O)CCC(=O)Nc1ccc(Br)c(Cl)c1,17.6
8,O=C(NC1CCC(O)CC1)c1cccnc1Sc1ccccc1Cl (centres unmarked),11.2
9,O=C(COc1ccccc1)NC(=S)Nc1cccc(NC(=O)c2ccccc2Cl)c1,10.8
10,COc1ccc(NC(=O)CSc2nc3ccccc3c3nc4ccccc4n23)cc1,11.1
11,COc1cc(NC(=O)CSc2nc3ccccc3c(=O)n2C)ccc1NC(=O)c1ccco1,-2.05
12,COc1ccc(Nc2nc(N3CCCCC3)nc3ccccc23)c(OC)c1,-12.1
13,Cc1ccc2cc3c(N)[nH]nc3nc2c1,6.77
14,CN/C(=C\[N+](=O)[O-])NCCSCc1ccc(CN(C)C)o1.Cl,14.3
15,COC(=O)C1(Cc2ccccc2)NC(c2ccccc2C)C2C(=O)N(c3ccc4c(c3)OCO4)C(=O)C21 (centres unmarked),2.84
16,CC(=O)Nc1ccccc1OCC(=O)NC(C)c1ccccc1 (centres unmarked),8.82
17,Cc1nc2ccc(NC(=O)c3ccc(Cl)c(S(=O)(=O)N(C)c4ccccc4)c3)cc2s1,14.4
18,CN(CC(=O)Nc1ccc(F)cc1)C(=O)CNC(=O)C1CCCCC1,0.884
19,CCCCNC(=O)C1Cc2cc(S(=O)(=O)N3CCCCC3)ccc2N1C(C)=O (centres unmarked),15.6
20,COc1ccc(N(Cc2cc3ccccc3[nH]c2=O)S(=O)(=O)c2ccc(C)cc2)cc1,13.9
21,N[C@@H](Cc1ccc(O)c(I)c1)C(=O)O,15.1
22,COCC(C)n1c(COc2ccccc2F)nnc1SCc1c(C)noc1C (centres unmarked),9.31
